The source gives no read counts; variants with many changes may rest on few reads.
B1: OR4K15 (parent)
chain: GUUAACGGUCAUAGGCCAUGGAAACUAGGAGCACCAUUUCGCUGCCAGUGAAGAAAUGAACAAAGAAAAUCUGGGCCAGGCAGGCAUCAAAAGAAAUAGUCUUGCGCUCAACCAGAAAGUCUGUAAUCAUUUUAAGGGUA

Variants of: B1
Assay: self-cleavage, relative activity (ratio to wild type); higher = more cleavage; in vitro, sequencing; the parent is a self-cleaving ribozyme

Q: With GUUAACGGUCUUAGGCCAUGGAGACUAGGAGCACCAUUUCGCUGCCAGUGAAGAAAUGAACAAAGAAAAUCUGGGCCAGGCAGGCAUCGAAAGAAAUAGUCUUGCGCUCGACCAGAAAGUCUGUAAUCAUUUUAAGGGUA [A11U A23G A89G A110G] as the variant, how does the self-cleavage read?
A: The self-cleavage was 0.14.

Q: With GUUAACGGUCGUAGGCCAUGGAAACUAGGAGCACCAUUUCGCCGCCAGUGAUGAAAUGAACAAAGAAAAUCUGGACCAGGCAGGCAUCAAAAGAAAUAGUCUAGCACUCAACCAGAAAGUCUGUAAUCAUUUUAAGGGUA [A11G U43C A52U G75A U103A G106A] as the variant, how does the self-cleavage read?
A: Its self-cleavage is 0.02.

Q: Which self-cleavage does the source give for GUUAACGGUCUUAGGCCAUGGAGCCUAGGAGCACCAUUUCGCUGCCAGUGAAGAAAUGAACAAAGAAAAUCUGGGCCAGGCAGGCAUCAAAAGAAAUAGUCUUGCGCUCAACCAGAAAGUCUGUAAUCAUUUUAAGGGUA [A11U A23G A24C] here?
A: The self-cleavage was 1.15.

Q: Which self-cleavage does the source give for GUUAACGGUCGUAGGCCAUGGAAACUAGGAGCACCAUUUCGCCGCCAGUGAAGAAAUGAACGAAGAAAAUCUGGGCCAGGCAGGCAUCAAAAGAAGUAGUCUUGCGCUCAACCAGAAAGUCUGUAAUCAUUUUAAGGGUA [A11G U43C A62G A96G] here?
A: The self-cleavage was 0.42.

Q: Which self-cleavage does the source give for GUUAACGGUCUUAGGCCAUGGACACUAGGAGCACCAUUUCGCUGCCAGUGUAGAAAUGAACAAAGAAAAUCUGGGCCAGGCAGGCAUCAAAAGAAAUAGUCUUGCGCUCAACCAGAAAGUCUGUAAUCAUUUUAAGGGUA [A11U A23C A51U] here?
A: Its self-cleavage is 1.1.

Q: Which self-cleavage does the source give for GUUAACGGUCGUAGGCCAUGGAAACUAGGAGCACCAUUCCGCUGCCAGUGAAGAAAUGAACAAAGAAAAUCUGGGCCAGGCAGGCAUCAAAAGAAAUAGUCUUGCGCUCAACCAGAAAGUCUGUAAUCAUUUUAAGGGAA [A11G U39C U139A] here?
A: The self-cleavage was 1.36.

Q: For GUUAACGGUCUUAGGCCAUGGAGACUAGGAGCACCAUUUCGCUGCCAGUGAAGAAAUGAACAAAGAAAAUCUGGGCCAGGCAGGUAUCAAAAGAAAUAGUCUUGCGCUCAACCAGAAAGUCUGUAAUCAUUUUAAGGGUA [A11U A23G C85U], which self-cleavage is on record?
A: The self-cleavage was 0.36.

Q: With GUUAACGGUCGUAGGCCAUGGAAACUAGGAGCACCAUUUCGCUGCCAGCGAAGAAAUGAACAAAGAAAAUCUGGGCCAGGCAGGCAUCAAAAGAAAUAGUCAUGCGCUCAACCAGAAAGUCUGUAAUCAUUUUAAGGGUA [A11G U49C U102A] as the variant, how does the self-cleavage read?
A: Its self-cleavage is 1.07.

Q: For GUUAACGGUCGUAGGCCAUGGAAACUAGGAGCACCAUUUCGCUGCCAGUGAAGAAAUGAACAAAGAAAAUCUGGGCCAGGCAGGCAUCAAAAGAAAUAGUCUUGCGCCUGACCAGAAAGUCUGUAAUCAUUUUAAGGGUA [A11G U108C C109U A110G], which self-cleavage is on record?
A: Its self-cleavage is 0.01.

Q: For GUUAACGGUCGUAGGCCAUGGAAACUAGGAGCACCAUUUCGCUGCCAGAGAAGAAAUGGACAAAGAAGAUCUGGGCCAGGCAGGCAUCAAAAGAAAUAGUCUUGCGCUCAACCAGAAAGUCUGUAAUCAUUUUAAGGGUA [A11G U49A A59G A68G], which self-cleavage is on record?
A: The self-cleavage was 0.51.

Q: With GUUAACGGUCGUAGGCCAUGGAAACUAGGAGCACCAUUUCGCAGCCAGUGAAGAAAUGAACAAAGAAAAUCUGGGCCAGGCAGGCAUCAAAAGGAAUAGUCCUGCGCUCAACCAGAAAGUCUGCAAUCAUUUUAAGGGUA [A11G U43A A94G U102C U124C] as the variant, how does the self-cleavage read?
A: The self-cleavage was 1.86.

Q: For GUUAACGGUCGUAGGCCAUGGAAACUAGGAGCACCAUUUCGCUGCCAGAGAAGAAAUGAACAAAGAAAAUCUGGGCCAGGCAGGCAUCAAAAGAAAUAGUCUUGCGCUCAACCAGAAAGUCUGUAAUCAUUUUAAGGGCA [A11G U49A U139C], which self-cleavage is on record?
A: The self-cleavage was 1.46.

Q: For GUUAACGGUCGUAGGCCAUGGAAACUAGGAGCACCAUUUCGCUGCCAGCGAAGAAAUGAACAAAGAAAAUCUGGGCCAGGCAGGCAUCAAAAGAACUAGUCUUGCGCUCAACCAGGAAGUCUGUAAUCAUUUUAAGGGUA [A11G U49C A96C A116G], which self-cleavage is on record?
A: Its self-cleavage is 0.25.

Q: With GUUAACGGUCGUAGGCCAUGGAAACUAGGAGCACCAUUCCGCUGCCAGUGAAGAAAUGAACAAAGAAAAUCUGGGCCAGGCAGGCAUCAAAUGAAACAGUCUUGCGCUCAACCAGAAAGUCUGUAAUCAUUUUAAGGGUA [A11G U39C A92U U97C] as the variant, how does the self-cleavage read?
A: The self-cleavage was 0.4.

Q: With GUUAACGGUCGUAGGCCAUGGAAACUAGGAGCACCAUUUCGCUGCCAGUGAAGAAACGAACAAAGAAAAUCUGGGCCAGGCAGGCAUCAAAAGAAAUAGUCUUGCGCUCAACCAGAAAAUCUGUAAUCAUUUUAAGGGUA [A11G U57C G119A] as the variant, how does the self-cleavage read?
A: The self-cleavage was 1.27.

Q: Which self-cleavage does the source give for GUUAACGGUCUUAGGCCAUGGAAGCUAGGAGCACCACUUCGCUGCCAGUGAAGAAAUGAACAGAGAAAAUCUGGGCCAGGCAGGCAUCAAAAGAAAUAGUCUUGCGCUCAACCAGAAAGUCUGUAAUCAUUUUAAAGGUA [A11U A24G U37C A63G G136A] here?
A: Its self-cleavage is 2.42.

Q: Which self-cleavage does the source give for GUUAACGGUCGUAGGCCAUGGAAACUAGGAGCACCAUUUCGCUGCCAGUGAAGAAAUGAACAAAGAAAAUCUGGGCCAGGCAGGCAUCAAAAGAAAUAGUCCUGCGCUCAACCAGAAAGCCUGUAAUCAUUUUAAGGGUA [A11G U102C U120C] here?
A: Its self-cleavage is 1.14.

Q: With GUUAACGGUCGUAGGCCAUGGAAACUAGGAGCACCAUUUCGCUGCCAGUGAAGAAAUGAACAAAGAAAAUCUGGGCCAGGCAGGCAUCAAAAGAAAUAGCCUUGCGCUCAACCAGAAAGUCUGUAAUCAUUUUAGGGGAA [A11G U100C A135G U139A] as the variant, how does the self-cleavage read?
A: Its self-cleavage is 1.22.

Q: For GUUAACGGUCUUAGGCCAUGGAGACUAGGAGCACCAUUUCGCUGCCAGUGAAGAAGUGAACAAAGAAAAUCUGGGCCAGGCAGGCAUCAAAAGAAAUAGUCUUGCGCUCAACCAGAAAGUCUGUAAUCAUUUUAAGGGUA [A11U A23G A56G], which self-cleavage is on record?
A: The self-cleavage was 0.87.

Q: Which self-cleavage does the source give for GUUAACGGUCGUAGGCCAUGGAAACUAGGAGCACCAUUUCGCAGCCAGUGAAGAAAUGAACAAAGAAAAUCUGGGCCAGGCAGGCAUCAAUAGAAAUAGUCUUGCGCUCAGCCAGAAAGUCUGUAAUCAUUUUAAGGGUA [A11G U43A A91U A111G] here?
A: The self-cleavage was 0.11.

Reference: the RNAGym collection of RNA variant scans (doi:10.7554/elife.90254)
